Test results: PubChem BioAssay AID493208 (National Center for Advancing Translational Sciences (NCATS), 2011)
Out of some 44,000 compounds screened, about 340 (0.77%) were called active. Another 5% or so got no clear call; they are omitted. Calls follow the shape of the dose curve; as a rule, active = well fitted inhibition curve with a large enough effect; inconclusive = small, poorly fitted or top-dose-only effect; inactive = flat fitted curve, though single readings scatter. The list shows a part of the results.

Assay: Acumen qHTS Assay for Inhibitors of the mTORC1 Signaling Pathway in MEF (Tsc2-/-, p53-/-) Cells: Sytravon; also: nearly all actives have a fitted effect of over 50% in size;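 as to activity change, negative = inhibition: plate controls were DMSO for no effect and rapamycin for full effect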
Conditions: phospho-rpS6 immunofluorescence/PI, 24 h; series mostly up to 38.3 µM; activity change, negative = inhibition: at the top concentration
Outline: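 Readout is phospho-S6 Alexa 488 signal normalized to PI per well, reported as % active cells with thresholds set from rapamycin (7.5 nM) and DMSO controls. Cells: Tsc2-/-, p53-/- MEFs, 24 hrs compound at 37 C; PI cell number serves as viability.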
Potency is read from the fitted curve at half-maximal effect.

Row | SMILES | activity change, negative = inhibition | Potency
1 | Cc1nnc(NC(=O)c2nc(SCc3ccccc3F)ncc2Cl)s1 | inactive: -1.41% | 
2 | O=C(NCc1ccccc1)C(=O)Nc1ccc2nc3n(c(=O)c2c1)CCCCC3 | inactive: 1.22% | 
3 | CCc1cc(C(=O)NCc2ccccc2)no1 | inactive: 2.7% | 
4 | Cc1c(C(=O)Nc2cccc(Cl)c2)oc2ccc(S(=O)(=O)N3CCCCCC3)cc12 | inactive: 19.3% | 
5 | Cc1cc(C)nc(-n2nc(C)c3c2N(C)C(=O)CC3c2ccc(Cl)cc2)n1 (configuration not stated) | inactive: -9.1% | 
6 | Cc1cc(-c2ccc(S(=O)(=O)Nc3ccccc3F)s2)on1 | inactive: 1.45% | 
7 | CC(NC(=O)Cc1ccc(NC(=O)N2CCSc3ncccc32)cc1)c1ccccc1 (configuration not stated) | inactive: -4.36% | 
8 | CCCOc1ccc(C(=O)Nc2ccc(NC(=O)c3ccccc3)c(Br)c2)cc1 |  | active: 18.5 µM
9 | O=C(CN1C(=O)COc2ccc(S(=O)(=O)NC3CCCC3)cc21)Nc1ccc(Cl)cc1 | inactive: 0.998% | 
10 | CCOC(=O)c1[nH]c(C)c(C(=O)NC(CC)Cc2ccccc2)c1C (configuration not stated) | inactive: 0.24% | 
11 | O=C(Nc1cccc(-c2cn3cccnc3n2)c1)c1cc(Br)ccc1Cl | inactive: -3.34% | 
12 | COc1ccc(C(=O)Nc2cc(C)c(O)c(-c3nc4ccccc4s3)c2)cc1OC | inactive: -2.39% | 
13 | Cc1ccc(C)c(NC(=O)Cn2c(=O)n(CC3CCCO3)c(=O)c3ccccc32)c1 (configuration not stated) | inactive: -17.7% | 
14 | CC(=O)Nc1ccc(NC(=O)CSc2nc3ccccc3nc2N2CCCCC2)cc1 | inactive: 2.23% | 
15 | CCN1CCN(c2ncnc3c2cnn3-c2ccc(C)c(C)c2)CC1 | inactive: 9.4% | 
16 | Cn1c(-n2cccc2)c(-c2c(-c3ccccc3)[nH]c3c2c(=O)[nH]c(=O)n3C)c(=O)[nH]c1=O | inactive: -5.33% | 
17 | Cc1ccc2c(c1)N(CC(=O)NCCc1ccc(Cl)cc1)C(=O)c1cccnc1O2 | inactive: -1.11% | 
18 | COc1cccc(CNC(=O)c2ccc3c(c2)nc2n3CCOC2)c1 | inactive: 7.48% | 
19 | Cc1ccc(-c2nnn3c2nc(NCC(C)c2ccccc2)c2ccccc23)cc1 (configuration not stated) | inactive: -6.27% | 
20 | CCOC(=O)CSc1nc2sc3c(c2c(=O)n1-c1ccccc1)CC(C(C)C)OC3 (configuration not stated) | inactive: 10.2% | 
21 | CCOc1ccc(CNC(=O)c2ccc(CS(=O)Cc3ccc(Cl)cc3)o2)cc1 (configuration not stated) | inactive: 0.621% | 
22 | CCOc1ccc(C(=O)Nc2cccc(OCc3cc(=O)n4cc(C)sc4n3)c2)cc1 | inactive: 1.59% | 
23 | CCCCOC(=O)c1cccc(NC(=O)c2cc3ccccc3o2)c1 | inactive: 17.2% | 

Row | SMILES | activity change, negative = inhibition | Potency
24 | O=C(Nc1ccc(Cl)cc1F)c1cc(S(=O)(=O)NCc2ccc3c(c2)OCO3)ccc1F | inactive: -12.3% | 
25 | CCc1ccc2oc(C(=O)Nc3sc4c(c3C(=O)NC)CCCC4)cc(=O)c2c1 | inactive: 3.38% | 
26 | COc1cccc(CNCCSc2nnnn2C)c1OCc1ccccc1F | inactive: -10.5% | 
27 | CN(C)CCn1c2c(c(SCC(=O)Nc3ccc(F)cc3F)nc1=O)CCC2 | inactive: 6.2% | 
28 | O=C(NCCc1ccccc1)c1ccc(CSc2nc3ccncc3n2Cc2ccc(F)cc2)cc1 | inactive: 2.57% | 
29 | CCCCn1cc(S(=O)(=O)c2cccc(C)c2)c(=O)c2cc(F)c(N3CCOCC3)cc21 | inactive: -5.71% | 
30 | Cc1ccc(C)c(Cn2nc(-c3cc(C)ccc3C)ccc2=O)c1 | inactive: -7.47% | 
31 | CCOC(=O)c1c(S(=O)(=O)N2CCCC(C(=O)N3CCN(c4ccccc4)CC3)C2)c(C)n(C)c1C (configuration not stated) | inactive: -0.042% | 
32 | Cc1ccccc1OC(=O)CSc1nnc(-c2cccs2)o1 | inactive: -0.665% | 
33 | COc1cccc(N2CC(NC(=O)c3ccc(S(=O)(=O)N4CCCCC4)cc3)CC2=O)c1 (configuration not stated) | inactive: -7.99% | 
34 | CCOc1ccc(S(=O)(=O)NCC(c2ccco2)S(=O)(=O)c2ccc(F)cc2)cc1 (configuration not stated) | inactive: 1.5% | 
35 | COc1ccc(-c2nc3ccccc3o2)cc1NC(=O)COc1ccc(C(C)(C)C)cc1 | inactive: 2.03% | 
36 | CCOC(=O)c1cc2c(=O)n3ccccc3nc2n(CC2CCCO2)c1=NC(=O)c1ccc(C)cc1 (configuration not stated) | inactive: 0% | 
37 | O=[N+]([O-])c1ccc(C(c2sc3nc(-c4ccco4)nn3c2O)N2CCN(c3cccc(Cl)c3)CC2)cc1 (configuration not stated) | inactive: -6.06% | 
38 | CCc1cccc(NC(=O)Cn2nc(-c3cc(C)ccc3C)ccc2=O)c1 | inactive: -4.1% | 
39 | Cc1nnc(NCc2ccccc2)c2c1nnn2Cc1ccc(F)cc1 | inactive: -2.22% | 
40 | Cc1ccc(CN2C(=O)C3(c4ccccc42)N(c2cccc(C(F)(F)F)c2)C(=O)CS3(=O)=O)cc1 (configuration not stated) | inactive: 3.89% | 
41 | COc1ccccc1NC(=O)CSc1oc(-c2cccs2)nc1S(=O)(=O)c1ccccc1 | inactive: 0.546% | 
42 | O=c1cc(CSc2n[nH]c(-c3ccccc3)n2)[nH]c2ccccc12 | inactive: -13.1% | 
43 | COc1cc(NC(=O)c2cc3c(=O)n(Cc4cccs4)ccc3nc2C)cc(OC)c1OC | inactive: -14.4% | 
44 | CC(Oc1ccccc1Cl)C(=O)N1CCN(CCc2ccccn2)CC1 (configuration not stated) | inactive: -11.3% | 
45 | O=C(CN1C(=O)COc2ccc(S(=O)(=O)N3CCOCC3)cc21)N1CCN(c2ccc(F)cc2)CC1 | inactive: 2.16% | 
46 | CC(Sc1nc(=O)cc(N)n1CCc1ccccc1)C(=O)Nc1ccccc1C#N (configuration not stated) | inactive: 4.7% | 

Row | SMILES | activity change, negative = inhibition | Potency
47 | COc1ccc(OC)c(NC(=O)CN2C(=O)CCc3cc(S(=O)(=O)N4CCCCC4)ccc32)c1 | inactive: 0% | 
48 | O=C(NC1CCCCC1)c1ccc2c(c1)N(Cc1ccc(Cl)cc1)C(=O)c1ccccc1S2(=O)=O | inactive: -3.67% | 
49 | COc1cccc(N2CCN(C(=O)c3cnn(-c4ccc(C)cc4C)c3C3CCN(C(=O)OC(C)(C)C)CC3)CC2)c1 | inactive: 0.811% | 
50 | CC(=O)N1c2c(cc(Br)cc2S(=O)(=O)N2CCN(c3cccc(Cl)c3)CC2)CC1C (configuration not stated) | inactive: -1.55% | 
51 | CCN(Cc1ccccc1)C(=O)c1cc2c(s1)-c1c(C)cccc1OC2 | inactive: -1.6% | 
52 | Cc1ccc(Cl)cc1NC(=O)Cn1c(=O)n(Cc2ccc(C(=O)NCc3ccc4c(c3)OCO4)cc2)c(=O)c2ccccc21 | inactive: -26.2% | 
53 | CC(=O)c1cccc(NS(=O)(=O)c2ccc3c(c2)NC(=O)CC(=O)N3)c1 | inactive: -1.22% | 
54 | Cc1ccc(C)c(N2CCN(C3=C(c4ccccc4)C(=O)c4ccccc43)CC2)c1 | inactive: -20.4% | 
55 | CCN1CCN(c2c(S(=O)(=O)c3ccc(C)c(C)c3)cnc3ccc(F)cc23)CC1 | inactive: -10.2% | 
56 | O=c1c2cnn(-c3ccc(Cl)cc3)c2ncn1Cc1cccc(C(F)(F)F)c1 | inactive: -0.256% | 
57 | COc1ccc(NC(=O)CSc2cc(-c3ccccc3)nc(C)n2)cc1 | inactive: -13% | 
58 | Cc1nn(CC(=O)Nc2ccccc2F)c(=O)c2c(C)n(-c3ccc(Cl)cc3)nc12 | inactive: -10.5% | 
59 | CCS(=O)(=O)c1ncc(N(Cc2ccc(F)cc2)Cc2ccco2)c(C(=O)Nc2cc(C)ccc2C)n1 | inactive: 0.885% | 
60 | CCOC(=O)C1CCN(C(=O)CN2c3ccc(CC)cc3-c3ccccc3S2(=O)=O)CC1 | inactive: -0.818% | 
61 | CCC(=O)Nc1ccc2nc(SCCOc3ccc(C)cc3)sc2c1 | inactive: -6.87% | 
62 | CCCN(CCC)C(=O)Cn1c(=O)n(-c2ccc(OC)cc2)c(=O)c2ccc(C(=O)NCc3ccc(C)cc3)cc21 | inactive: 1.96% | 
63 | Cc1ccc(-n2c(SCC(=O)Nc3cccc(C)c3)nc3c(oc4ccccc43)c2=O)cc1 | inactive: 1% | 
64 | CCOC(=O)C1CCCN(C(=O)c2ccc(-n3ccc4ccccc43)s2)C1 (configuration not stated) | inactive: -10.8% | 
65 | COc1cccc(-c2ccc3c(N)c(C(=O)Nc4cc(F)ccc4F)sc3n2)c1 | inactive: -11.3% | 
66 | Cc1cccn2c(=O)c3cc(C(=O)NCc4cccnc4)c(=N)n(CCCO)c3nc12 | inactive: -9.73% | 
67 | CC(C)(C)c1ccc(C(=O)NC2(C(F)(F)F)C(=O)Nc3c2c(=O)[nH]c(=O)n3-c2ccccc2)cc1 (configuration not stated) | inactive: 2.63% | 
68 | O=C(NCc1ccccc1)c1nc(S(=O)(=O)Cc2ccccc2)ncc1Cl |  | active: 16.5 µM
69 | CN1CCc2nc3sc(C(=O)Nc4ccccc4OC(F)(F)F)c(N)c3cc2C1 | inactive: -9.81% | 

Row | SMILES | activity change, negative = inhibition | Potency
70 | Cc1ccc(Cn2c(SCC(=O)C(C)(C)C)nc3ccsc3c2=O)cc1 | inactive: -7.9% | 
71 | CC1=Nc2cc(C(=O)NCCc3ccccc3)ccc2Sc2c(C)ccc(C)c21 | inactive: -12.7% | 
72 | COc1ccc(NC(=O)Cn2c(=O)n(-c3ccc(C)cc3)c(=O)c3c2cnn3C)cc1 | inactive: -14.6% | 
73 | O=C(Nc1ccc2nc(SCC(=O)N3CCCC3)sc2c1)c1cccc(Cl)c1 | inactive: -9.88% | 
74 | CCOC(=O)c1c(C)[nH]c(C)c1S(=O)(=O)N(C)CC(=O)Nc1ccc(C)c(N(C)C)c1 | inactive: -2.12% | 
75 | CC(C)CCNC(=O)C1CCN(c2nc3ccc(Cl)cc3[nH]2)CC1 | inactive: 12.8% | 
76 | COc1ccc(C)cc1NC(=O)c1ccc(=O)n(Cc2ccccc2)c1 | inactive: -0.878% | 
77 | COC(=O)c1cc2occc2n1Cc1nc(-c2cccc(Cl)c2)oc1C | inactive: 1.05% | 
78 | COc1ccc(OC)c(CCNC(=O)c2cnn(-c3ccccc3Cl)c2C2CCN(C(=O)OC(C)(C)C)CC2)c1 | inactive: 2.24% | 
79 | COc1ccc(Nc2nc3c(S(=O)(=O)c4ccccc4)nnn3c3ccsc23)cc1OC | inactive: -5.41% | 
80 | Cc1cccc(C(=O)Nc2c(C(=O)NCc3ccc(Cl)cc3)sc3nc(C)cc(C)c23)c1 |  | active: 13.1 µM
81 | CC(=O)Nc1ccc(S(=O)(=O)Nc2cc(-c3cn4ccccc4n3)ccc2C)cc1 | inactive: 0.208% | 
82 | COc1ccc(CCNC(=O)c2cn(C)c3ccc(S(=O)(=O)N(C)C4CCCCC4)cc3c2=O)cc1OC | inactive: 4.19% | 
83 | COc1ccc(-c2nsc(NC(=O)C(C)Oc3ccc(Cl)c(C)c3)n2)cc1 (configuration not stated) | inactive: -0.0543% | 
84 | COc1cccc(-n2c(=O)c3c(C)c(C)sc3n(CC(=O)NCc3ccccc3)c2=O)c1 | inactive: 4.09% | 
85 | COc1ccccc1NC(=O)C1=C(C)Nc2nnnn2C1c1cc(Br)c(O)c(OC)c1 (configuration not stated) | inactive: 0% | 
86 | Cc1ccc(C)c(Cn2c(=O)cc(C)c3c(C)nn(-c4cccc(F)c4)c32)c1 | inactive: -2.76% | 
87 | COc1ccc(NC(=O)c2cnc(Nc3ccc(C)c(Cl)c3)c3ccccc23)cc1OC | inactive: 0.723% | 
88 | CCCN(CCC)CCNC(=O)c1ccc2c(c1)NC(=O)C(CS(=O)(=O)Cc1cccc(Br)c1)N2 (configuration not stated) | inactive: 0.906% | 
89 | Cc1sc2ncn(CC(=O)N3CCN(c4cccc(Cl)c4)CC3)c(=O)c2c1S(=O)(=O)N1CCN(c2ncccn2)CC1 | inactive: -20.9% | 
90 | COc1ccccc1N1CCN(S(=O)(=O)CCNC(=O)COc2ccc(C(C)C)cc2)CC1 | inactive: -0.195% | 
91 | CCOc1ccccc1N1CC(c2nc3ccccc3n2Cc2c(C)cc(C)cc2C)CC1=O (configuration not stated) | inactive: -1.85% | 
92 | COc1ccc(NC(=O)c2ccc3c(SCC(=O)O)c4c(nc3c2)CCC4)c(OC)c1 | inactive: -1.56% | 
